Reference: the RNAGym collection of RNA variant scans (doi:10.7554/elife.90254)
The source gives no read counts; variants with many changes may rest on few reads.

B1: LINE1-mini (parent)
chain: GGCAGAGCUCAACACAGCGUGGCAAAGUGGCUGUGGCUAGACUGCC

Variants of: B1
Assay: self-cleavage, relative activity (ratio to wild type); higher = more cleavage; in vitro, sequencing; the parent is a self-cleaving ribozyme

Variant	self-cleavage
C13A G30A U43A	0.16
G1U C8U A16U G22C G27A G33C U34G	0.03
C8U G21U C46A	0.46
C13U C15U C31A	0.06
G19C G27C U28G G35U	0.01
C15A A25G A26U U34G G44U C45G	0
A4G G29C G36C A41C	0.1
C3U U28A C31U C46A	0.03
G5A G33C G40A G44C	0.28
G1U C18A G30A C45A	0.09
C8G A16C G35A	0.04
A6U G21A U28A G29C	0.72
G5U G35C U38G	0.1
A16C A26U G33A C37U C45A	0.03
U20G A26C G33A	0.33
C13G G21A G30U	0.11
C8U A11U A41G	0.02
G2A G5A C15U G36C	0.36
A24G C37A A41U	0.13
A4C C23U G33C	0.03
C10U A11C G27C C31U	0.01

Variant	self-cleavage
G1U A12G A14G	0.02
C10U G21C U43C	0.15
G5U A26C G27C G35U	0.02
U32A C37A G40C	0.09
G29U C31A G35U G36A G40U A41U	0.04
U9G U20G G29U U38A C42A	0.03
G5C A25U A26C G27A	0.05
G2C C18G U34A	0.07
A6U G7A U34C U43G	0.02
G1U A6G C8A G30A G35A C42A C45G	0.03
G1C A14G C15A	0
G17C U20C A24G C46A	0.05
G1C A4C G17U C31A	0.15
G17A G19A C42U	0.13
C3G G7U A11U C45A C46A	0.01
G2A U9C A26U U43C	0.02
C10U G19C G36C C37G	0.02
U9A G27U C46G	0.13
A4U G22U C31A G40U G44A	0.02
U9G G19U G30C U34G U38G	0
U9A C31G A39U	0.04

Variant	self-cleavage
C3G C10G G44A	0.04
G2A C10U G21A G27A	0.13
C3U A11C U43A	0.02
A6G A25G A39C	0.31
A4U C8U G17C U20C U28C C31U C37G A41U	0.16
G1U A16U A25U G40A C45A	0.01
C15U C18U U32G C42A	0.02
G7A C15A U34A U43C	0.24
C18A G36A C42G	0.02
G5U C10U C13U G33C A39U	0.04
G5A C13A U38G	0
G5U C15A G44U	0.05
A16U G22U G29U	0.26
G2C A4G A16U A25G U28G G36A G40C	0.01
G5A C23U G29U	0.31
C8G C10A C23A G40A C45G	0.01
A6U A14G G27C	0.04
G7C A16G C42A	0.01
G19C G22U U34G G36U C42U	0.1
A4C A14C G33U	0.02
G7U G22C G27A C37A	0.02

Variant	self-cleavage
C3G A12U G17C	0.05
U20A G21A A24U C31U	0.04
A4C G7U U9G G22U G44U	0.13
G1C C10A G27C G33U	0
C10A C23G G44A	0.02
G5U C18A G30U	0.05
G21U G29A U32C G35U	0.08
C23A C37A C42A	0.05
C3A G17C C46U	0.13
G5U U9G C18G	0.05
G2U A4G G19A	0.1
G7U G19A A26C	0
A6G G22U G44C	0.04
C13G G17U A39C G40U	0.01
C8G A12U U28A C31U U34G	0.02
G21U C23U C42U	0.85
C8A C15U C18U G30A C31U	0.19
G5U U28C U32G	0.05
G2A A25U A26U	0.61
G19A C31A G36C	0.05
